{
  "source": "paper PMC9911399",
  "about": "“Two distinct binding modes provide the RNA-binding protein RbFox with extraordinary sequence specificity”",
  "binders": {"B1": {"name": "GCGUGAA (DNA:RNA)", "RNA": "GGGAGACCGGAAUUCAGAUUGUCCGCGUGAAUUAAAUCCCGUCGUAGCCACCA", "DNA 1": "CAATCTGAATTCCGGTCTCCC", "DNA 2": "TGGTGGCTACGACGGGATT"}, "B2": {"name": "GCGGCGG (DNA:RNA)", "RNA": "B1 RNA with U28G, G29C, A30G, A31G", "DNA 1": "CAATCTGAATTCCGGTCTCCC", "DNA 2": "TGGTGGCTACGACGGGATT"}, "B3": {"name": "UGAAGCC (DNA:RNA)", "RNA": "B1 RNA with G25U, C26G, G27A, U28A, A30C, A31C", "DNA 1": "CAATCTGAATTCCGGTCTCCC", "DNA 2": "TGGTGGCTACGACGGGATT"}, "B4": {"name": "UGGCUUG (DNA:RNA)", "RNA": "B1 RNA with G25U, C26G, U28C, G29U, A30U, A31G", "DNA 1": "CAATCTGAATTCCGGTCTCCC", "DNA 2": "TGGTGGCTACGACGGGATT"}, "B5": {"name": "AAUUCAG (DNA:RNA)", "RNA": "B1 RNA with G25A, C26A, G27U, G29C, A31G", "DNA 1": "CAATCTGAATTCCGGTCTCCC", "DNA 2": "TGGTGGCTACGACGGGATT"}, "B6": {"name": "UUAGUGG (DNA:RNA)", "RNA": "GGGAGACCGGAAUUCAGAUUGUCCUUAGUGGUUAAAUCCCGUCGUAGCCACCA", "DNA 1": "CAATCTGAATTCCGGTCTCCC", "DNA 2": "TGGTGGCTACGACGGGATT"}, "B7": {"name": "GACACAC (DNA:RNA)", "RNA": "B1 RNA with C26A, G27C, U28A, G29C, A31C", "DNA 1": "CAATCTGAATTCCGGTCTCCC", "DNA 2": "TGGTGGCTACGACGGGATT"}, "B8": {"name": "AGGGCGU (DNA:RNA)", "RNA": "B6 RNA with U25A, U26G, A27G, U29C, G31U", "DNA 1": "CAATCTGAATTCCGGTCTCCC", "DNA 2": "TGGTGGCTACGACGGGATT"}, "B9": {"name": "CAUAGCU (DNA:RNA)", "RNA": "B1 RNA with G25C, C26A, G27U, U28A, A30C, A31U", "DNA 1": "CAATCTGAATTCCGGTCTCCC", "DNA 2": "TGGTGGCTACGACGGGATT"}, "B10": {"name": "CUUCCUG (DNA:RNA)", "RNA": "B6 RNA with U25C, A27U, G28C, U29C, G30U", "DNA 1": "CAATCTGAATTCCGGTCTCCC", "DNA 2": "TGGTGGCTACGACGGGATT"}, "B11": {"name": "GACUUGA (DNA:RNA)", "RNA": "B1 RNA with C26A, G27C, G29U, A30G", "DNA 1": "CAATCTGAATTCCGGTCTCCC", "DNA 2": "TGGTGGCTACGACGGGATT"}, "B12": {"name": "UCUUAUG (DNA:RNA)", "RNA": "B1 RNA with G25U, G27U, G29A, A30U, A31G", "DNA 1": "CAATCTGAATTCCGGTCTCCC", "DNA 2": "TGGTGGCTACGACGGGATT"}, "B13": {"name": "UGGUUGU (DNA:RNA)", "RNA": "B6 RNA with U26G, A27G, G28U, G31U", "DNA 1": "CAATCTGAATTCCGGTCTCCC", "DNA 2": "TGGTGGCTACGACGGGATT"}, "B14": {"name": "GACGAAU (DNA:RNA)", "RNA": "B1 RNA with C26A, G27C, U28G, G29A, A31U", "DNA 1": "CAATCTGAATTCCGGTCTCCC", "DNA 2": "TGGTGGCTACGACGGGATT"}, "B15": {"name": "CUUUAGC (DNA:RNA)", "RNA": "B6 RNA with U25C, A27U, G28U, U29A, G31C", "DNA 1": "CAATCTGAATTCCGGTCTCCC", "DNA 2": "TGGTGGCTACGACGGGATT"}, "B16": {"name": "GCGCUGC (DNA:RNA)", "RNA": "B1 RNA with U28C, G29U, A30G, A31C", "DNA 1": "CAATCTGAATTCCGGTCTCCC", "DNA 2": "TGGTGGCTACGACGGGATT"}, "B17": {"name": "UCGCCCA (DNA:RNA)", "RNA": "B1 RNA with G25U, U28C, G29C, A30C", "DNA 1": "CAATCTGAATTCCGGTCTCCC", "DNA 2": "TGGTGGCTACGACGGGATT"}, "B18": {"name": "GAAGCCU (DNA:RNA)", "RNA": "B6 RNA with U25G, U26A, U29C, G30C, G31U", "DNA 1": "CAATCTGAATTCCGGTCTCCC", "DNA 2": "TGGTGGCTACGACGGGATT"}, "B19": {"name": "UGACACA (DNA:RNA)", "RNA": "B6 RNA with U26G, G28C, U29A, G30C, G31A", "DNA 1": "CAATCTGAATTCCGGTCTCCC", "DNA 2": "TGGTGGCTACGACGGGATT"}, "B20": {"name": "CAUACAA (DNA:RNA)", "RNA": "B1 RNA with G25C, C26A, G27U, U28A, G29C", "DNA 1": "CAATCTGAATTCCGGTCTCCC", "DNA 2": "TGGTGGCTACGACGGGATT"}, "B21": {"name": "CCCCCCU (DNA:RNA)", "RNA": "B1 RNA with G25C, G27C, U28C, G29C, A30C, A31U", "DNA 1": "CAATCTGAATTCCGGTCTCCC", "DNA 2": "TGGTGGCTACGACGGGATT"}, "B22": {"name": "CAAACUC (DNA:RNA)", "RNA": "B6 RNA with U25C, U26A, G28A, U29C, G30U, G31C", "DNA 1": "CAATCTGAATTCCGGTCTCCC", "DNA 2": "TGGTGGCTACGACGGGATT"}, "B23": {"name": "GCUACGA (DNA:RNA)", "RNA": "B1 RNA with G27U, U28A, G29C, A30G", "DNA 1": "CAATCTGAATTCCGGTCTCCC", "DNA 2": "TGGTGGCTACGACGGGATT"}, "B24": {"name": "ACUUAAA (DNA:RNA)", "RNA": "B1 RNA with G25A, G27U, G29A", "DNA 1": "CAATCTGAATTCCGGTCTCCC", "DNA 2": "TGGTGGCTACGACGGGATT"}, "B25": {"name": "ACCCAGC (DNA:RNA)", "RNA": "B1 RNA with G25A, G27C, U28C, G29A, A30G, A31C", "DNA 1": "CAATCTGAATTCCGGTCTCCC", "DNA 2": "TGGTGGCTACGACGGGATT"}, "B26": {"name": "GCUGACA (DNA:RNA)", "RNA": "B1 RNA with G27U, U28G, G29A, A30C", "DNA 1": "CAATCTGAATTCCGGTCTCCC", "DNA 2": "TGGTGGCTACGACGGGATT"}, "B27": {"name": "GACUUCU (DNA:RNA)", "RNA": "B1 RNA with C26A, G27C, G29U, A30C, A31U", "DNA 1": "CAATCTGAATTCCGGTCTCCC", "DNA 2": "TGGTGGCTACGACGGGATT"}, "B28": {"name": "UGUCCUG (DNA:RNA)", "RNA": "B6 RNA with U26G, A27U, G28C, U29C, G30U", "DNA 1": "CAATCTGAATTCCGGTCTCCC", "DNA 2": "TGGTGGCTACGACGGGATT"}, "B29": {"name": "AAACCUU (DNA:RNA)", "RNA": "B6 RNA with U25A, U26A, G28C, U29C, G30U, G31U", "DNA 1": "CAATCTGAATTCCGGTCTCCC", "DNA 2": "TGGTGGCTACGACGGGATT"}, "B30": {"name": "UGGGAGG (DNA:RNA)", "RNA": "B6 RNA with U26G, A27G, U29A", "DNA 1": "CAATCTGAATTCCGGTCTCCC", "DNA 2": "TGGTGGCTACGACGGGATT"}, "B31": {"name": "AUUAUCG (DNA:RNA)", "RNA": "B6 RNA with U25A, A27U, G28A, G30C", "DNA 1": "CAATCTGAATTCCGGTCTCCC", "DNA 2": "TGGTGGCTACGACGGGATT"}},
  "note": "Numbering of substitutions follows the chain as printed; changes in the protein carry UniProt numbers. Some of the results follow.",
  "data": [
    {"target": "T1, RBFOX1 RRM (Homo sapiens, UniProt Q9NWB1 109-208)", "T1 sequence": "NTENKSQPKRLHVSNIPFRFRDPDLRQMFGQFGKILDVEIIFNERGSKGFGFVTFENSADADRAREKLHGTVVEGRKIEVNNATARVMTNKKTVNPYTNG", "experiment": "EMSA; HiTS-Eq, 1 nM pool, 10 min; buffer printed only for the single-RNA assays: 10 mM Tris pH 7.5, 150 mM NaCl, 3.4 mM EDTA, 0.001% NP-40, 30 C", "conditions": "tags: His6 N-terminal (pET28a); label: 5' 32P", "outline": "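Purified wild-type or mutant RbFox RRM at increasing concentrations was equilibrated with 1 nM of 5′-radiolabelled RNA carrying 7 randomized nucleotides for 10 min in 50 µL. Unbound RNA was separated by 8% native PAGE and sequenced. Relative association constants came from read-count changes of each RNA species compared with the control reaction, normalised to the cognate motif.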", "values": [
      {"binder": "B1", "binding signal": "0.0114 KA relative to UGCAUGU"},
      {"binder": "B2", "binding signal": "0.0288 KA relative to UGCAUGU"},
      {"binder": "B3", "binding signal": "0.0111 KA relative to UGCAUGU"},
      {"binder": "B4", "binding signal": "0.0526 KA relative to UGCAUGU"},
      {"binder": "B5", "binding signal": "0.00854 KA relative to UGCAUGU"},
      {"binder": "B6", "binding signal": "0.00895 KA relative to UGCAUGU"},
      {"binder": "B7", "binding signal": "0.00291 KA relative to UGCAUGU"},
      {"binder": "B8", "binding signal": "0.0222 KA relative to UGCAUGU"},
      {"binder": "B9", "binding signal": "0.00495 KA relative to UGCAUGU"},
      {"binder": "B10", "binding signal": "0.0131 KA relative to UGCAUGU"},
      {"binder": "B11", "binding signal": "0.0187 KA relative to UGCAUGU"},
      {"binder": "B12", "binding signal": "0.0119 KA relative to UGCAUGU"},
      {"binder": "B13", "binding signal": "0.0314 KA relative to UGCAUGU"},
      {"binder": "B14", "binding signal": "0.0126 KA relative to UGCAUGU"},
      {"binder": "B15", "binding signal": "0.0111 KA relative to UGCAUGU"},
      {"binder": "B16", "binding signal": "0.0232 KA relative to UGCAUGU"},
      {"binder": "B17", "binding signal": "0.00298 KA relative to UGCAUGU"},
      {"binder": "B18", "binding signal": "0.00942 KA relative to UGCAUGU"},
      {"binder": "B19", "binding signal": "0.00643 KA relative to UGCAUGU"},
      {"binder": "B20", "binding signal": "0.000734 KA relative to UGCAUGU"},
      {"binder": "B21", "binding signal": "0.00046 KA relative to UGCAUGU"},
      {"binder": "B22", "binding signal": "0.00115 KA relative to UGCAUGU"},
      {"binder": "B23", "binding signal": "0.009 KA relative to UGCAUGU"},
      {"binder": "B24", "binding signal": "0.00202 KA relative to UGCAUGU"},
      {"binder": "B25", "binding signal": "0.00224 KA relative to UGCAUGU"},
      {"binder": "B26", "binding signal": "0.0129 KA relative to UGCAUGU"},
      {"binder": "B27", "binding signal": "0.0118 KA relative to UGCAUGU"},
      {"binder": "B28", "binding signal": "0.0171 KA relative to UGCAUGU"},
      {"binder": "B29", "binding signal": "0.00164 KA relative to UGCAUGU"},
      {"binder": "B30", "binding signal": "0.0271 KA relative to UGCAUGU"},
      {"binder": "B31", "binding signal": "0.006 KA relative to UGCAUGU"}
    ]}
  ]
}
